This note sets out measurements from US10299477B2 (priority 2015, dated 2019).

The structures appear in SMILES notation.

The test system of one experiment is Phytophthora infestans. It is filed as in vivo. The note with it: 250 ppm spray (2.5 ml/pot), preventive; 5-10 days after inoculation; control value class.
In the next experiment the test system is Magnaporthe grisea. It is filed as in vivo. To be noted: 250 ppm spray, preventive; control value class.
In experiment [1] the test system is Colletotrichum orbiculare. The note with it: 250 ppm spray (2.5 ml/pot), preventive; 6-10 days after inoculation; control value class.

As for `CCCCCOc1ccc(Cl)c(-c2ccc(=O)n(C)c2-c2c(F)cccc2F)c1` [Compound 255], in the experiment with Phytophthora infestans, the “Test F control value (late blight on tomato)” value (shortened to “Test F control value”) is recorded as “L (L shows 50% or less of control values)”. In the experiment on Magnaporthe grisea, the “Test A control value (blast on rice)” value is given as “L (L shows 50% or less of control values)”. Besides, in experiment [1], the “Test H control value (anthracnose on cucumber)” value (shortened to “Test H control value”) is on record as “L (L shows 50% or less of control values)”.
For the compound `CN1C(=O)CCC(c2cccc(Cl)c2)=C1c1c(F)cccc1F` [Compound 191], the “Test F control value” value with Phytophthora infestans is reported as “L (L shows 50% or less of control values)”. In the experiment on Magnaporthe grisea, the “Test A control value (blast on rice)” value was “L (L shows 50% or less of control values)”. Also, the “Test H control value” value in experiment [1] is “L (L shows 50% or less of control values)”.
`CCn1c(-c2c(F)cccc2F)c(-c2cccc(Br)c2)cc(Cl)c1=O` [Compound 328]: the “Test F control value” value with Phytophthora infestans is recorded as “L (L shows 50% or less of control values)”. Further, the “Test A control value (blast on rice)” value in the experiment on Magnaporthe grisea is “H (H shows more than 50% of control values)”. Besides, the “Test H control value” value in experiment [1] is reported as “L (L shows 50% or less of control values)”.
For `CCN1C(=O)CCC(c2ccc(OC)cc2)=C1c1c(F)cccc1F` [Compound 300], in the experiment on Phytophthora infestans, the “Test F control value” value is recorded as “L (L shows 50% or less of control values)”. In the experiment with Magnaporthe grisea, the “Test A control value (blast on rice)” value is “H (H shows more than 50% of control values)”. Besides, the “Test H control value” value in experiment [1] was “L (L shows 50% or less of control values)”.
As for `CCOc1ccc(Cl)c(-c2cc(Cl)c(=O)n(CC(F)F)c2-c2c(F)cccc2F)c1` [Compound 223], the “Test F control value” value with Phytophthora infestans is “L (L shows 50% or less of control values)”. Besides, the “Test A control value (blast on rice)” value in the experiment on Magnaporthe grisea is given as “H (H shows more than 50% of control values)”. The “Test H control value” value in experiment [1] was “H (H shows more than 50% of control values)”.
For the compound `CCn1c(-c2c(F)cccc2F)c(-c2ccc(Cl)cc2)ccc1=O` [Compound 265], the “Test F control value” value in the experiment on Phytophthora infestans was “L (L shows 50% or less of control values)”. Moreover, the “Test A control value (blast on rice)” value in the experiment with Magnaporthe grisea was “H (H shows more than 50% of control values)”. Also, the “Test H control value” value in experiment [1] is on record as “H (H shows more than 50% of control values)”.
For the compound `CCn1c(-c2c(F)cccc2F)c(-c2cc(OCSC)ccc2Cl)ccc1=O` [Compound 305], the “Test F control value” value in the experiment on Phytophthora infestans was “L (L shows 50% or less of control values)”. Moreover, the “Test A control value (blast on rice)” value in the experiment with Magnaporthe grisea is listed as “H (H shows more than 50% of control values)”. Besides, in experiment [1], the “Test H control value” value is “H (H shows more than 50% of control values)”.
For the compound `CCn1c(-c2c(F)cccc2F)c(-c2cc(OCC3CC3)ccc2Cl)ccc1=O` [Compound 212], the “Test F control value” value in the experiment on Phytophthora infestans is reported as “L (L shows 50% or less of control values)”. The “Test A control value (blast on rice)” value in the experiment with Magnaporthe grisea is “H (H shows more than 50% of control values)”. The “Test H control value” value in experiment [1] is on record as “L (L shows 50% or less of control values)”.
With `CCN1C(=O)CCC(c2cc(OC)cc(OC)c2Cl)=C1c1c(F)cc(F)cc1F` [Compound 342], the “Test F control value” value in the experiment with Phytophthora infestans is reported as “L (L shows 50% or less of control values)”. In the experiment on Magnaporthe grisea, the “Test A control value (blast on rice)” value was “H (H shows more than 50% of control values)”. Moreover, in experiment [1], the “Test H control value” value is on record as “H (H shows more than 50% of control values)”.
Take `CCn1c(-c2c(F)cccc2F)c(-c2cc(OCCOC)ccc2Cl)ccc1=O` [Compound 193]: the “Test F control value” value with Phytophthora infestans is listed as “L (L shows 50% or less of control values)”. Moreover, in the experiment with Magnaporthe grisea, the “Test A control value (blast on rice)” value is recorded as “H (H shows more than 50% of control values)”. For the same compound, the “Test H control value” value in experiment [1] is listed as “H (H shows more than 50% of control values)”.
`COc1ccc(Cl)c(C2=C(c3c(F)cccc3F)N(CC(F)F)C(=O)CC2)c1` [Compound 192, 5-(2-chloro-5-methoxyphenyl)-1-(2,2-difluoroethyl)-6-(2,6-difluorophenyl)-3,4-dihydropyridine-2(1H)-one]: the “Test F control value” value in the experiment on Phytophthora infestans is “L (L shows 50% or less of control values)”. Also, the “Test A control value (blast on rice)” value in the experiment with Magnaporthe grisea is listed as “H (H shows more than 50% of control values)”. For the same compound, the “Test H control value” value in experiment [1] is given as “L (L shows 50% or less of control values)”.
As for `CC(C)Oc1ccc(Cl)c(-c2ccc(=O)n(C)c2-c2c(F)cccc2F)c1` [Compound 257], the “Test F control value” value with Phytophthora infestans is recorded as “L (L shows 50% or less of control values)”. Moreover, the “Test A control value (blast on rice)” value with Magnaporthe grisea is reported as “H (H shows more than 50% of control values)”. The “Test H control value” value in experiment [1] is reported as “L (L shows 50% or less of control values)”.
On to `CCn1c(-c2c(F)cccc2F)c(-c2cc(O)ccc2Cl)ccc1=O` [Compound 234, 5-(2-chloro-5-hydroxyphenyl)-6-(2,6-difluorophenyl)-1-ethylpyridine-2(1H)-one], for which, in the experiment on Phytophthora infestans, the “Test F control value” value is “L (L shows 50% or less of control values)”. In addition, the “Test A control value (blast on rice)” value in the experiment on Magnaporthe grisea was “H (H shows more than 50% of control values)”. For the same compound, in experiment [1], the “Test H control value” value is listed as “H (H shows more than 50% of control values)”.
For `Cn1c(-c2c(F)cccc2F)c(-c2cc(OCC3CC3)ccc2Cl)ccc1=O` [Compound 238], the “Test F control value” value in the experiment with Phytophthora infestans is reported as “L (L shows 50% or less of control values)”. Besides, the “Test A control value (blast on rice)” value with Magnaporthe grisea was “H (H shows more than 50% of control values)”. Also, the “Test H control value” value in experiment [1] is recorded as “H (H shows more than 50% of control values)”.
Regarding `CCN1C(=O)CCC(c2cccc(OC(F)(F)F)c2)=C1c1c(F)cccc1F` [Compound 208], the “Test F control value” value in the experiment on Phytophthora infestans is recorded as “L (L shows 50% or less of control values)”. For the same compound, in the experiment with Magnaporthe grisea, the “Test A control value (blast on rice)” value was “H (H shows more than 50% of control values)”. In experiment [1], the “Test H control value” value is on record as “L (L shows 50% or less of control values)”.
Take `CCn1c(-c2c(F)cccc2F)c(-c2cccc(OC(F)(F)F)c2)ccc1=O` [Compound 217]: the “Test F control value” value in the experiment on Phytophthora infestans is on record as “L (L shows 50% or less of control values)”. For the same compound, the “Test A control value (blast on rice)” value in the experiment on Magnaporthe grisea was “H (H shows more than 50% of control values)”. In addition, the “Test H control value” value in experiment [1] is reported as “L (L shows 50% or less of control values)”.
With `CCOCOc1ccc(Cl)c(-c2ccc(=O)n(CC)c2-c2c(F)cccc2F)c1` [Compound 325], the “Test F control value” value with Phytophthora infestans was “L (L shows 50% or less of control values)”. Moreover, the “Test A control value (blast on rice)” value with Magnaporthe grisea is recorded as “H (H shows more than 50% of control values)”. The “Test H control value” value in experiment [1] is “H (H shows more than 50% of control values)”.
As to `CCn1c(-c2c(F)cccc2F)c(-c2cc(OC)ccc2Cl)cc(C)c1=O` [Compound 329, 5-(2-chloro-5-methoxyphenyl)-6-(2,6-difluorophenyl)-1-ethyl-3-methylpyridine-2(1H)-one], in the experiment on Phytophthora infestans, the “Test F control value” value is reported as “L (L shows 50% or less of control values)”. Moreover, the “Test A control value (blast on rice)” value with Magnaporthe grisea is recorded as “H (H shows more than 50% of control values)”. Besides, the “Test H control value” value in experiment [1] is on record as “H (H shows more than 50% of control values)”.
On to `CCn1c(-c2c(F)cccc2F)c(-c2ccccc2[S+](C)[O-])ccc1=O` (stereo not drawn) [Compound 264], for which the “Test F control value” value in the experiment with Phytophthora infestans is on record as “L (L shows 50% or less of control values)”. In addition, the “Test A control value (blast on rice)” value in the experiment with Magnaporthe grisea is “H (H shows more than 50% of control values)”. In experiment [1], the “Test H control value” value was “L (L shows 50% or less of control values)”.
Regarding `CCCOc1ccc(Cl)c(-c2ccc(=O)n(C)c2-c2c(F)cccc2F)c1` [Compound 241], the “Test F control value” value in the experiment on Phytophthora infestans is “L (L shows 50% or less of control values)”. The “Test A control value (blast on rice)” value with Magnaporthe grisea is “H (H shows more than 50% of control values)”. The “Test H control value” value in experiment [1] is given as “H (H shows more than 50% of control values)”.
Regarding `CCn1c(-c2c(F)cccc2F)c(-c2cc(OCCC3OCCCO3)ccc2Cl)ccc1=O` [Compound 317], the “Test F control value” value in the experiment on Phytophthora infestans is “L (L shows 50% or less of control values)”. Further, the “Test A control value (blast on rice)” value with Magnaporthe grisea is given as “H (H shows more than 50% of control values)”. In experiment [1], the “Test H control value” value is recorded as “L (L shows 50% or less of control values)”.
For the compound `CCn1c(-c2c(F)cccc2F)c(-c2ccc(OC)cc2)ccc1=O` [Compound 301], the “Test F control value” value with Phytophthora infestans is given as “H (H shows more than 50% of control values)”. Moreover, in the experiment on Magnaporthe grisea, the “Test A control value (blast on rice)” value was “H (H shows more than 50% of control values)”. Besides, the “Test H control value” value in experiment [1] is given as “H (H shows more than 50% of control values)”.
With `CCn1c(-c2c(F)cncc2F)c(-c2cc(OC)cc(OC)c2Br)ccc1=O` [Compound 216], the “Test F control value” value with Phytophthora infestans is reported as “H (H shows more than 50% of control values)”. In the experiment with Magnaporthe grisea, the “Test A control value (blast on rice)” value was “H (H shows more than 50% of control values)”. Moreover, the “Test H control value” value in experiment [1] was “H (H shows more than 50% of control values)”.
As to `CCOc1ccc(Cl)c(-c2ccc(=O)n(C)c2-c2c(F)cccc2F)c1` [Compound 237], the “Test F control value” value in the experiment on Phytophthora infestans was “L (L shows 50% or less of control values)”. In the experiment on Magnaporthe grisea, the “Test A control value (blast on rice)” value was “H (H shows more than 50% of control values)”. The “Test H control value” value in experiment [1] is “H (H shows more than 50% of control values)”.
Take `Cn1c(-c2c(F)cccc2F)c(-c2cc(OC3CCCC3)ccc2Cl)ccc1=O` [Compound 288]: in the experiment with Phytophthora infestans, the “Test F control value” value is “L (L shows 50% or less of control values)”. In the experiment on Magnaporthe grisea, the “Test A control value (blast on rice)” value is recorded as “L (L shows 50% or less of control values)”. Besides, the “Test H control value” value in experiment [1] is “L (L shows 50% or less of control values)”.
Take `CCn1c(-c2c(F)cccc2F)c(-c2cc(OCC(C)C)ccc2Cl)ccc1=O` [Compound 258]: in the experiment with Phytophthora infestans, the “Test F control value” value is given as “L (L shows 50% or less of control values)”. Also, the “Test A control value (blast on rice)” value with Magnaporthe grisea is on record as “L (L shows 50% or less of control values)”. Besides, the “Test H control value” value in experiment [1] is reported as “H (H shows more than 50% of control values)”.
